From publication PMC6919601, “Identification of Plasmodium dipeptidyl aminopeptidase allosteric inhibitors by high throughput screening” (PLoS ONE, 2019) come the findings set out here.

SMILES strings stand for the structures. Among all 110,000 compounds or so, about 230 (0.21%) showed an effect of 50% or more. Some of the results follow.
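Note: 30 min substrate incubation versus DMSO and 10 µM JCP410 controls.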

Sequence of DPAP1 (Q8IIJ9 whole entry, looked up): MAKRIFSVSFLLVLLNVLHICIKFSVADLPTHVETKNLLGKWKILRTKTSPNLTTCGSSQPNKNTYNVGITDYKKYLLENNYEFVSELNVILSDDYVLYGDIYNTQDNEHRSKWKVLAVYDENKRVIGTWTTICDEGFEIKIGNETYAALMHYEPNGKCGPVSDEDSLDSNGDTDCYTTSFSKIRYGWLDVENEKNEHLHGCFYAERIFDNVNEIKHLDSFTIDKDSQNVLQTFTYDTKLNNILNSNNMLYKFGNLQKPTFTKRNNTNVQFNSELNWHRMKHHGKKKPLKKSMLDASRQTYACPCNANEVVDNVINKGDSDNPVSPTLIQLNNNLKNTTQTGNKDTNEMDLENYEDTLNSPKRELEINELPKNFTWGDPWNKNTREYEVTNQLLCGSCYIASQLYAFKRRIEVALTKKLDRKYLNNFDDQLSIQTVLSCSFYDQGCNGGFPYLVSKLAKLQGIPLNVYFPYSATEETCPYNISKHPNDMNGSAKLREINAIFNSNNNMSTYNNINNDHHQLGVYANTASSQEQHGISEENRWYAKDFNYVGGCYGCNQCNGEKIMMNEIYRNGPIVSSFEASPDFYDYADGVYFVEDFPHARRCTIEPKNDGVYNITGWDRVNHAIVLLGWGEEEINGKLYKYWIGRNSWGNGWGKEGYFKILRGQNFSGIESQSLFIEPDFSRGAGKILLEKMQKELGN

The assay addresses DPAP1 (Plasmodium falciparum, UniProt Q8IIJ9). Briefly: primary screen, percent inhibition; read by cleavage of a fluorogenic dipeptide substrate; higher = more effect of the substance. Also on record: species or system P. falciparum D10 trophozoite lysates; single well.
On to `Cc1cccc(C(=O)N2CCc3ccccc32)c1`, for which the “% Inhibition @ 10 uM” value is listed as -2.54%.

For `Cc1c(Cl)cccc1NC(=O)Cc1ccccc1`, the “% Inhibition @ 10 uM” value is on record as -0.127%.

Consider `O=c1oc2ccccc2cc1-c1nc(-c2cccnc2)no1`, for which the “% Inhibition @ 10 uM” value turned out to be 4.51%.

In the case of `Cn1c(-c2ccccc2)c(-c2ccccc2)s/c1=N\C(=O)c1cccnc1`, the “% Inhibition @ 10 uM” value is given as 3.58%.

With `COc1ccc(-c2cc(N)n(S(=O)(=O)Cc3ccccc3)n2)c(OC)c1`, the “% Inhibition @ 10 uM” value is given as -2.19%.

Consider `COc1ccc(-c2nnc3n(CCCOC(C)C)c(=O)c4ccccc4n23)c(OC)c1`, for which the “% Inhibition @ 10 uM” value is -1.72%.

On to `COc1cccc(CNc2nc3c(S(=O)(=O)c4ccc(Cl)cc4)nnn3c3ccsc23)c1`, for which the “% Inhibition @ 10 uM” value is -4.95%.

Turning to `Cc1ccccc1CNC(=O)c1cnn(-c2ccccc2)c1-n1cccc1`, the “% Inhibition @ 10 uM” value is recorded as -3.47%.

Take `CN1C(=O)C(=Cc2ccc(SCc3ccc(Cl)cc3)o2)C(=O)N(C)C1=O`: the “% Inhibition @ 10 uM” value is reported as -7.13%.

Consider `CC(NC(=O)[C@H](Cc1c[nH]c2ccccc12)NC(=O)OC(C)(C)C)c1ccccc1` (stereo partly shown), for which the “% Inhibition @ 10 uM” value is recorded as -3.96%.

For the molecule `N#Cc1cn[nH]c1NCc1ccccc1O`, the “% Inhibition @ 10 uM” value is recorded as 4.57%.

Turning to `CCN(CC)CCNC(=O)CCCCn1c(=S)[nH]c2c([nH]c3ccc(OC)cc32)c1=O`, the “% Inhibition @ 10 uM” value is -0.704%.

As to `CCOC(=O)c1ccc2c(c1)C1C=CCC1C(C(=O)O)N2` (stereo not shown), the “% Inhibition @ 10 uM” value came out at 7.96%.

With `O=C1NC=C(c2ccccc2)C(c2ccccc2)N1` (stereo not shown), the “% Inhibition @ 10 uM” value was -4.58%.

With `CCCc1nn(-c2nc3ccccc3s2)c(O)c1/C(C)=N/CCO`, the “% Inhibition @ 10 uM” value is reported as -2.15%.

With `CC1CCCN(S(=O)(=O)c2ccc3nc(O)cc(C(=O)NCc4ccccc4Cl)c3c2)C1` (stereo not shown), the “% Inhibition @ 10 uM” value worked out at 2.05%.

On to `Cc1c(NC(=O)c2cccnc2C(=O)O)cccc1C(=O)O`, for which the “% Inhibition @ 10 uM” value was determined as 0.24%.

In the case of `CSc1nsc(SC)c1NC(=O)OCc1ccccc1`, the “% Inhibition @ 10 uM” value was found to be 29.6%.

Take `COc1ccc2ncc(S(=O)(=O)c3ccc(Cl)cc3)c(N3CCN(C)CC3)c2c1`: the “% Inhibition @ 10 uM” value is -10.2%.

For the molecule `O=C(Nc1sc2c(c1CN1CCOCC1)CCC2)c1ccc(F)cc1`, the “% Inhibition @ 10 uM” value came out at 6.1%.

As to `CC1CCN(C(=O)Cn2cc(S(=O)(=O)N3CCCC3)c(S(=O)(=O)N3CCCC3)c2)CC1`, the “% Inhibition @ 10 uM” value was 4.83%.

On to `Nc1cc(-c2ccccc2)nn1-c1ccc(C(=O)O)cc1`, for which the “% Inhibition @ 10 uM” value is given as -3.5%.

As for `CCn1cc(C(=O)Nc2ccc(Br)cc2C)cn1`, the “% Inhibition @ 10 uM” value is reported as -5.1%.

On to `CCOC(=O)c1cc(-c2ccc(C)cc2)n(CCC(=O)NC2CCCCC2)c1C`, for which the “% Inhibition @ 10 uM” value is recorded as -1.66%.

Take `CC(=O)N1CCN(CCN2C(=O)C3C4c5ccccc5C(c5ccccc54)C3C2=O)CC1` (stereo not shown): the “% Inhibition @ 10 uM” value stood at 1.64%.

With `COc1ccc(-c2ccc(Cc3nc(Cc4ccccc4)no3)cc2)cc1`, the “% Inhibition @ 10 uM” value worked out at 4.23%.

With `CC(=O)Nc1sc2c(c1CN1CCCCC1)CCCC2`, the “% Inhibition @ 10 uM” value is -6.68%.

For `COc1ccc2nc(C)c(C(N)=O)cc2c1`, the “% Inhibition @ 10 uM” value is reported as 1.76%.

`COc1ccc(-c2cc3c4c(C)n(-c5ccc(OC)cc5)c(C)c4c(C)nn3c2)cc1`: the “% Inhibition @ 10 uM” value is on record as -1.15%.

As for `COc1ccccc1/C=C/c1nn2c(-c3cccc(Cl)c3)nnc2s1`, the “% Inhibition @ 10 uM” value is 2.89%.

For `O=C(Nc1cccc(-c2nc3ccccc3s2)c1)c1cc(Cl)cc(Cl)c1`, the “% Inhibition @ 10 uM” value is 6.83%.

As to `COc1ccc(-c2nc(CS(=O)CC(=O)NC(C)c3ccccc3)c(C)o2)cc1OC` (stereo not shown), the “% Inhibition @ 10 uM” value is -2.85%.

Take `Cn1c(=O)n(Cc2ccccc2)c(=O)c2c1nc(N1CCOCC1)n2Cc1ccccc1`: the “% Inhibition @ 10 uM” value stood at 5.17%.

With `Cc1nn(C)c2c1c(C(F)(F)F)cc(=O)n2CC(=O)NCCc1ccccc1`, the “% Inhibition @ 10 uM” value was 3.66%.

Consider `C/C(=N/N=C(/C)c1cc(C)ccc1OCC(=O)O)c1cc(C)ccc1OCC(=O)O`, for which the “% Inhibition @ 10 uM” value is listed as 1.27%.

As for `O=C(CCCc1nnc2n3nc(-c4ccccc4)nc3c3ccccc3n12)N1CCOCC1`, the “% Inhibition @ 10 uM” value worked out at 0.44%.

As to `O=C(O)[C@H]1CCCC[C@H]1C(=O)Nc1ccc(S(=O)(=O)N2CCCCC2)cc1`, the “% Inhibition @ 10 uM” value is given as -0.898%.

On to `CN(Cc1ccccc1)C(=O)C1CCN(S(=O)(=O)c2ccc(Cl)cc2)CC1`, for which the “% Inhibition @ 10 uM” value stood at 2.17%.

As to `CC(C)C[C@H](NC(=O)c1ccc(-c2c(Cl)cccc2Cl)cc1Cl)C(=O)NCC#N`, the “% Inhibition @ 10 uM” value is on record as -1.82%.

Consider `COc1cc(OC)c(NC(=O)c2cccs2)cc1Cl`, for which the “% Inhibition @ 10 uM” value was -0.711%.

For the molecule `COC(=O)C1=CN(Cc2ccc(OC)c(OC)c2)C=C(C(=O)OC)C1c1ccc(O)c(OC)c1`, the “% Inhibition @ 10 uM” value amounted to 1.86%.

Consider `CCOc1cc(C2C(C(=O)OC)=C(C)N=C3C2=C(O)c2ccccc23)cc(Cl)c1OC` (stereo not shown), for which the “% Inhibition @ 10 uM” value was -1.33%.

With `Cc1nonc1OCC12CC3CC(CC(C3)C1)C2`, the “% Inhibition @ 10 uM” value is 1.74%.

On to `Oc1cccc(/C=C/c2ccc3cccc(O)c3n2)c1`, for which the “% Inhibition @ 10 uM” value was -1.52%.

As to `COc1ccc(CNC(=O)c2ccc(Cn3cc(Br)cn3)o2)cc1`, the “% Inhibition @ 10 uM” value is listed as 0.413%.

On to `CCCCc1ccc(S(=O)(=O)C(C)(C)C)cc1`, for which the “% Inhibition @ 10 uM” value is on record as -2.51%.

Take `CC(C)CCN(Cc1ccco1)C(=O)c1oc(=O)c2ccccc2c1-c1ccccc1`: the “% Inhibition @ 10 uM” value amounted to 0.66%.

For `COc1ccc(-c2cc(C(=O)N3CCN(Cc4ccccc4)CC3)no2)cc1`, the “% Inhibition @ 10 uM” value worked out at 3.2%.

For the molecule `CCOC(=O)c1c(C)oc2ncnc(N3CCC(C(N)=O)CC3)c12`, the “% Inhibition @ 10 uM” value was 0.0065%.
